About 12,000 (3.5%) of roughly 340,000 compounds were called active. Inconclusive results, whose numbers are uncertain, are shown with a selection of clear calls. Calls come from the whole dose curve; as a rule, active = well fitted inhibition curve with a large enough effect; inconclusive = small, poorly fitted or top-dose-only effect, or another doubt; inactive = no such curve, though single readings can be large or run the other way. Potencies of inconclusive entries are left out as doubtful fits.
Experiment: qHTS Assay for Inhibitors of Hepatitis C Virus (HCV)
Settings: Huh7.5.1 HCVcc-Cre (HCVcc is cell-culture hepatitis C virus) infection, luciferase reporter, 44 h; series mostly up to 41.8 µM
Outline: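 Antiviral activity was scored by luciferase reporter output from cells infected with HCVcc-Cre (~0.5 moi) in presence of compound, 44 h infection period, cells seeded 1,000/well 4 h prior.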
In the case of O=C(c1cc(-c2ccc(Cl)c(Cl)c2)on1)N1CCN(c2ccccc2)CC1, the Potency was “inactive”. With CCc1nc(OCCN(CC)CC)c2oc3ccccc3c2n1 the Potency was inconclusive [inhibitor, partial curve]. With CCOc1cc(S(=O)(=O)N2CCCCCC2)ccc1F the Potency was inconclusive [inhibitor, partial curve]. With Cc1ccc(C)c(N2CCN(CCCc3ccccc3)CC2)c1 the Potency was inconclusive [inhibitor, single point]. For Cc1cc(Nc2cc(Cl)cc(Cl)c2)nc(N)n1, the Potency was inconclusive [inhibitor, single point]. For O=[N+]([O-])c1cc(Br)ccc1C[n+]1ccccc1, the Potency was “inactive”. For CCCC(=O)Nc1ccccc1NC(=O)CN(C)S(=O)(=O)c1ccccc1, the Potency was inconclusive [inhibitor, single point]. In the case of CC(NC(=O)CCc1nnc(-c2ccc(-c3ccccc3)cc2)o1)c1nc2ccccc2[nH]1 (stereo unspecified), the Potency was “inactive”. With CCCN(CCC)Cc1c(C(=O)N/N=C/C(C)=C\c2ccccc2)nnn1-c1nonc1N the Potency was inconclusive [inhibitor, single point]. In the case of COc1cccc(-n2c(SCC(=O)N3CCCCC3)nc3c([nH]c4ccccc43)c2=O)c1, the Potency was “inactive”. In the case of COc1ccc(CNC(=O)COC(=O)c2ccc(C)c(S(=O)(=O)N3CCOCC3)c2)cc1OC, the Potency was “inactive”. With O=C(Nc1ccc(OC(F)(F)F)cc1)c1cnc2n(c1=O)CCS2 the Potency was “inactive”. With COc1ccc2ccccc2c1CNCCc1ccccc1 the Potency was inconclusive [inhibitor, single point]. With C=CCn1c(=O)c(C(=O)Nc2cc(C)ccn2)c(O)c2ccccc21 the Potency was inconclusive [inhibitor, partial curve]. In the case of Cc1ccc(NC(=S)NNC(C)(C)C)cc1, the Potency was “inactive”. In the case of CC(C)(C)C(=O)NC(=S)NNC(=O)C(c1ccccc1)c1ccccc1, the Potency was inconclusive [inhibitor, partial curve]. For O=C(Nc1c(C(=O)N2CCC(N3CCCCC3)CC2)oc2ccccc12)c1c(F)cccc1F, the Potency was inconclusive [inhibitor, partial curve]. With O=C(CSCC(=O)Nc1cccc([N+](=O)[O-])c1)Nc1ccccc1 the Potency was “inactive”. For Cc1ccc(OCC(=O)Nc2cc(S(=O)(=O)N3CCCCC3)ccc2N2CCN(C)CC2)c(C)c1, the Potency was inconclusive [inhibitor, single point]. In the case of COc1ccccc1C(=O)NC(=S)Nc1cccnc1Cl, the Potency was active: 11.2 µM. With COc1ccc(OCC(O)CNC(=O)Nc2ccc(C(C)(C)C)cc2)cc1 (stereo unspecified) the Potency was “inactive”. In the case of O=C(CCc1nc(-c2ccccc2)no1)NCc1ccco1, the Potency was “inactive”. With CCOc1cc(C(=O)N2CCC(CC3CC(c4cccc(Br)c4)=NO3)(C(=O)NCC3CCCCC3)CC2)cc(OCC)c1OCC (stereo unspecified) the Potency was inconclusive [inhibitor, full curve]. In the case of CC(OC(=O)CCc1cc(C(C)(C)C)c(O)c(C(C)(C)C)c1)C(=O)NC1CC1 (stereo unspecified), the Potency was inconclusive [inhibitor, partial curve]. With Cc1occc1C(=O)/C(C#N)=C/c1ccc(O)c(Br)c1 the Potency was “inactive”. For Cc1ccc[n+](CC(=O)c2ccc(-c3ccccc3)cc2)c1, the Potency was “inactive”. With CCN(CC)CCCC(C)Nc1nccc2cccc(Cl)c12 (stereo unspecified) the Potency was inconclusive [inhibitor, partial curve]. With Cc1nn(Cc2ccc(F)cc2)c(Cl)c1/C=N/NC(=O)c1ccccc1 the Potency was “inactive”. In the case of CC(C)C(=O)Nc1ccc(C(=O)CN2C(=O)NC3(CCOc4ccccc43)C2=O)cc1 (stereo unspecified), the Potency was inconclusive [inhibitor, single point]. In the case of COc1cccc(C(=O)NNC2OC(CO)C(O)C2O)c1 (stereo unspecified), the Potency was “inactive”. For CCC1CCCCN1C(=O)c1ccc2nc(Cc3ccc(OC)cc3)oc2c1 (stereo unspecified), the Potency was “inactive”. For O=C(Nc1ccc(NC(=S)NC(=O)c2ccccc2Cl)cc1)c1cccc(Cl)c1, the Potency was active: 25.1 µM. With COc1cc(/C=N/NC(=O)CC#N)ccc1Oc1nc(Cl)ncc1F the Potency was inconclusive [inhibitor, partial curve]. For CN(C)c1ccnc(Nc2ccc(O)cc2)c1C#N, the Potency was “inactive”. In the case of Cc1nc(N2CCN(C)CC2)c2sc(=S)n(C)c2n1, the Potency was inconclusive [inhibitor, single point]. For Cc1oc(-c2ccc(Cl)cc2)nc1CS(=O)CC(=O)NC1CC1 (stereo unspecified), the Potency was inconclusive [inhibitor, single point]. For C#CCOCCOCCOCCNc1nc(N2CCN(C(=O)CCCCCCCCCCNC(=O)Cn3cc(C[C@@H](C)O)nn3)CC2)nc(N2CCN(C(=O)CCCCCCCCCCNC(=O)[C@H](CCCCN)n3cc(CCCC(=O)O)nn3)CC2)n1, the Potency was inconclusive [inhibitor, single point]. For O=C(Nc1cccc(F)c1)c1ccc2c(c1)OCO2, the Potency was “inactive”. For O=C(NCCN1CCCCC1)Nc1ccc(Br)cc1, the Potency was inconclusive [inhibitor, partial curve]. With COc1ccc(-c2ccc3c(c2)S(=O)(=O)c2cccc(C(=O)NC[C@@H]4CCCO4)c2C3=O)cc1OC the Potency was inconclusive [inhibitor, partial curve]. With CCOc1cc(-c2ccc(N)c(OCC)c2)ccc1N the Potency was inconclusive [inhibitor, single point]. For COc1cc(-c2nc(-c3ccccc3)c(-c3cccs3)[nH]2)cc(OC)c1O, the Potency was active: 10 µM. For O=C(NNc1c2ccccc2nc2ccccc12)C(O)c1ccccc1 (stereo unspecified), the Potency was inconclusive [inhibitor, full curve, poor fit]. With COc1ccccc1OCCCn1cc(C(=O)c2ccco2)c2ccccc21 the Potency was active: 11.2 µM. In the case of C=CCNC(=O)c1ccc(N(Cc2ccc(Cl)cc2)S(C)(=O)=O)cc1, the Potency was “inactive”. In the case of COc1ccc(C(=O)NNC(=O)CN(C)S(=O)(=O)c2ccc(Cl)cc2)c(OC)c1OC, the Potency was inconclusive [inhibitor, partial curve]. With Cc1ccc(-c2[nH]c3ccccc3c2SCCNC(=O)c2ccc(S(=O)(=O)N3CCOCC3)cc2)cc1 the Potency was inconclusive [inhibitor, partial curve]. With COc1ccc(C(=O)Nc2ccccc2-c2ccccc2)cc1Cl the Potency was inconclusive [inhibitor, single point]. For O=C(Nc1ccccc1C(=O)Nc1ccncc1)c1cccc([N+](=O)[O-])c1, the Potency was inconclusive [inhibitor, partial curve, poor fit]. For Cc1cnc(NC(=O)Nc2ccc(OCc3ccccc3)cc2)c(Br)c1, the Potency was inconclusive [inhibitor, single point]. With COc1ccccc1C1C2=C(N=c3s/c(=C/c4cccc(OCC(=O)O)c4)c(=O)n31)c1ccccc1CC2 (stereo unspecified) the Potency was inconclusive [inhibitor, single point]. For Cc1ccc2oc(=O)c3cc(C(=O)NCCCN4CCN(C)CC4)sc3c2c1, the Potency was inconclusive [inhibitor, single point]. In the case of COc1ccc(S(=O)(=O)N2CCCC(C(=O)NC3CC3)C2)cc1Cl (stereo unspecified), the Potency was “inactive”. For O=C(C1CCCN(S(=O)(=O)c2ccccc2)C1)N1CCCc2ccccc21 (stereo unspecified), the Potency was inconclusive [inhibitor, single point]. With N#Cc1cc(-c2ccc(Cl)cc2)cnc1Sc1ccc(F)cc1 the Potency was inconclusive [inhibitor, single point]. With CCN(CC(=O)Nc1c(F)cccc1F)C(=O)c1ccc(S(=O)(=O)NCc2ccco2)cc1 the Potency was “inactive”. In the case of COc1cc(C)ccc1OCCCOc1cc(C)ccc1Cl, the Potency was “inactive”. With Cc1ccc(-n2c(SCC(=O)N3CC(=O)Nc4ccccc43)nc3ccccc3c2=O)cc1C the Potency was inconclusive [inhibitor, partial curve]. In the case of COc1cc(OC)nc(NC(=O)CN2CCN(c3ccc(F)cc3)CC2)n1, the Potency was “inactive”. In the case of COc1ccc(-c2nnc(NC(=O)c3ccc(S(=O)(=O)N4COCC4(C)C)cc3)o2)cc1, the Potency was inconclusive [inhibitor, single point]. With CN(Cc1cccnc1)C(=O)c1ccc(Cl)c(NS(=O)(=O)c2ccc(F)cc2)c1 the Potency was “inactive”. With Brc1cc(Br)c2nc3c(cc2c1)CCC3 the Potency was active: 10 µM. In the case of CCOC(=O)c1c(NC(=O)CCN2C(=O)c3ccccc3C2=O)sc(C(=O)OC(C)C)c1C, the Potency was inconclusive [inhibitor, full curve, poor fit]. In the case of C/C=C(\C)C(=O)N1CCC(C(=O)c2ccccc2)CC1, the Potency was “inactive”. With O=C(Cc1cc(=O)[nH][nH]1)N/N=C/C=C/c1ccccc1 the Potency was “inactive”. In the case of O=C(c1ccc([N+](=O)[O-])s1)N1CCCc2ccccc21, the Potency was inconclusive [inhibitor, single point]. With Cc1nn(-c2nc3ccccc3s2)c(N)c1-c1ccccc1 the Potency was inconclusive [inhibitor, full curve]. For COc1cccc(CNC(=O)C(C)n2ccc3cc(S(=O)(=O)N4CCCCCC4)ccc32)c1 (stereo unspecified), the Potency was inconclusive [inhibitor, single point]. In the case of O=C(Nc1ccc(Cl)c(S(=O)(=O)N2CCOCC2)c1)c1cc(-c2ccccn2)nc2ccccc12, the Potency was inconclusive [inhibitor, partial curve]. In the case of Cc1ccc(C)c(S(=O)(=O)NCCOC(=O)Nc2sc(=S)n(C)c2C)c1, the Potency was inconclusive [inhibitor, single point]. For CCc1ccc(N2CCN(S(=O)(=O)CC34CCC(CC3=O)C4(C)C)CC2)cc1 (stereo unspecified), the Potency was inconclusive [inhibitor, single point].

— PubChem BioAssay AID651820 (National Center for Advancing Translational Sciences (NCATS), 2012)
Potency is the fitted concentration of half-maximal effect; tags give direction and shape of the fitted curve.
